Measurements as given in PubChem BioAssay AID504845 (National Center for Advancing Translational Sciences (NCATS), 2011).
Where “and” joins values, the source holds several entries; their conditions need not be identical. Identical values can stand only once. In all, about 390,000 compounds went through this assay and about 150 (0.038%) were called active. About 3% were inconclusive and are not listed. Calls come from the whole dose curve; as a rule, active = well fitted inhibition curve with a large enough effect; inconclusive = small, poorly fitted or top-dose-only effect; inactive = no such curve, though single readings can be large or run the other way. The list shows a part of the results, in another mix than the full data. Where a structure was tested more than once in an assay, its records may differ in their call.

Biological target: Regulator of G-protein signaling 4 (Homo sapiens) (UniProt P49798)
Chain of UniProt P49798 (P49798 whole entry, looked up): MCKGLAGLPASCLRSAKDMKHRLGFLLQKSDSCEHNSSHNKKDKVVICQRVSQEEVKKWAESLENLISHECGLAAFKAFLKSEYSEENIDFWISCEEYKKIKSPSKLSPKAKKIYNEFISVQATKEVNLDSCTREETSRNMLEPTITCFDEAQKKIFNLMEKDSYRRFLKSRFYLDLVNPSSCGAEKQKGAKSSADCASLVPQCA
Test: Inhibitors of Regulator of G Protein Signaling (RGS) 4: qHTS; note: nearly all actives have a fitted effect of over 75% in size
Details: Transcreener GDP fluorescence polarization, RGS4-accelerated GTP hydrolysis; series mostly up to 114 µM; activity change, negative = inhibition: at the top concentration
Summary of the method: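 MLSMR compounds (23 nl, pin-transferred) preincubated 10 min at room temperature with a 500nM (2x) first reagent, then RGS4 at 900nM (2x) plus Transcreener GDP mix added; fluorescence polarization (620/688 nm) read before and after 90 min at 30 °C.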
% is set by controls: 0 for no effect and ±100 for the full control effect; potency is the fitted concentration of half-maximal effect.

Row | Structure (SMILES) | activity change, negative = inhibition | Potency
1 | CC(C)=CCOc1c2occc2cc2ccc(=O)oc12 | inactive: 10.7% [at 56.9 µM] | –
2 | Ic1ccccc1CN[C@@H]1C2CCN(CC2)[C@@H]1C(c1ccccc1)c1ccccc1 | inactive: -22.7% | –
3 | CNCC[C@@H](Oc1ccc(C(F)(F)F)cc1)c1ccccc1 | inactive: -12.3% | –
4 | C[C@H](N)CN1CCc2ccc(Br)cc21 | inactive: 2.88% | –
5 | CC(=O)N1CCN(c2ccc(OC[C@H]3CO[C@](Cn4ccnc4)(c4ccc(Cl)cc4Cl)O3)cc2)CC1 | – | inactive
6 | N#C/C(=C/c1ccc(O)c(O)c1)C(N)=S | – | active: 6.7 µM
7 | CC[C@@]1(O)C(=O)OCc2c1cc1n(c2=O)Cc2cc3ccccc3nc2-1 | – | inactive
8 | CCC(C)/C=C(C)/C=C/C1=CC2=C(Cl)C(=O)C(C)(OC(C)=O)C(=O)C2=CO1 (centres undefined) | inactive: -22.1% | –
9 | CN1C[C@H](C(=O)N[C@]2(C)O[C@@]3(O)[C@@H]4CCCN4C(=O)[C@H](Cc4ccccc4)N3C2=O)C[C@@H]2c3cccc4[nH]cc(c34)C[C@H]21 | inactive: -7.81% [at 56.9 µM] | –
10 | CC(CCc1ccccc1)NC(C)C(O)c1ccc(O)cc1 (centres undefined) | – | inactive
11 | CCN1C[C@]2(COC)CC[C@H](OC)[C@@]34C1[C@]1(OCO[C@@]15C[C@H](OC)[C@H]1C[C@@H]3[C@@H]5[C@H]1OC)[C@@H](O)[C@H]24 | inactive: -4.09% | –
12 | CCCN1CCCC2Cc3nc(N)ncc3CC21 (centres undefined) | inactive: 380% [at 56.9 µM] | –
13 | Oc1ccc2c3c1O[C@H]1c4[nH]c5c(c4C[C@@]4(O)[C@@H](C2)N(CC2CC2)CC[C@]314)C[C@@]1(O)[C@H]2Cc3ccc(O)c4c3[C@@]1(CCN2CC1CC1)[C@H]5O4 | inactive: 10.9% [at 56.9 µM] | –
14 | CN1C[C@H](C(=O)NC2(C)OC3(O)[C@@H]4CCCN4C(=O)[C@H](Cc4ccccc4)N3C2=O)CC2c3cccc4[nH]cc(c34)C[C@H]21 (some centres undefined) | inactive: 1.91% | –
15 | C=C1C(=O)O[C@@H]2C[C@@H](C)[C@@H]3C=CC(=O)[C@@]3(C)[C@@H](O)[C@H]12 | – | active: 21.2 µM
16 | CN1CCCCC1c1cccnc1 (centres undefined) | – | active: 37.7 µM
17 | N[C@H](Cc1ccc(O)cc1)C(=O)O | inactive: -12.2% [at 56.9 µM] | –
18 | COc1cc(OC)c(/C=C2\C(=O)Nc3ccccc32)c(OC)c1 | inactive: 21.6% | –
19 | CCS(=O)(=O)Nc1cccc(C(=C2CCCCC2)c2cnc[nH]2)c1 | – | inactive
20 | NCC(O)c1cc(O)c(O)cc1F (centres undefined) | – | inactive and active: 18.9 µM
21 | C[N+]1(C)[C@@H]2CC[C@H]1CC(OC(=O)[C@@H](CO)c1ccccc1)C2 (some centres undefined) | inactive: -33.1% | –

Row | Structure (SMILES) | activity change, negative = inhibition | Potency
22 | CC1(C(=O)O)CCCC2(C)c3cc(O)ccc3CCC12 (centres undefined) | inactive: 37% | –
23 | Oc1ccc2c3c1O[C@H]1c4[nH]c5ccccc5c4C[C@@]4(O)C(C2)N(CC2CC2)CCC314 (some centres undefined) | inactive: 1.32% [at 56.9 µM] | –
24 | CC(N)Cc1c[nH]c2ccc(OCc3cccs3)cc12 (centres undefined) | inactive: -38.1% | –
25 | CC(C)[C@@]1(NC(=O)[C@@H]2C[C@@H]3c4cccc5[nH]cc(c45)C[C@H]3N(C)C2)O[C@@]2(O)[C@@H]3CCCN3C(=O)[C@H](Cc3ccccc3)N2C1=O | – | inactive
26 | C[N+](C)(C)CC#CCN1CCCC1=O | inactive: -31% | –
27 | CNC(=O)Oc1ccc2c(c1)[C@@]1(C)CCN(C)[C@@H]1N2C | inactive: -183% [at 56.9 µM] | –
28 | CN1C[C@H](C(=O)N[C@]2(C)O[C@@]3(O)[C@@H]4CCCN4C(=O)[C@H](Cc4ccccc4)N3C2=O)CC2c3cccc4[nH]cc(c34)C[C@H]21 (some centres undefined) | – | inactive
29 | OC(CNCCc1c[nH]c2ccccc12)C(F)(F)F (centres undefined) | inactive: 62.1% | –
30 | C[N+]1(C)CCN(c2ccccc2)CC1 | inactive: -15.2% | –
31 | CCCN1CCC[C@H](c2cccc(O)c2)C1 | – | inactive
32 | N[C@@]1(C(=O)O)CC[C@@H](C(=O)O)C1 | – | inactive
33 | O=C1CC2(CCCC2)CC(=O)N1CCCCN1CCN(c2ncccn2)CC1 | – | inactive
34 | Clc1cc(I)cc(Cl)c1NC1=NCCN1 | – | inactive
35 | Cn1c[n+](C)cc1C(O)c1ccccc1 (centres undefined) | inactive: -0.598% | –
36 | C[C@H](CCC(=O)O)[C@H]1CC[C@H]2[C@@H]3[C@H](O)C[C@@H]4C[C@H](O)CC[C@]4(C)[C@H]3CC[C@]12C | inactive: 17.9% | –
37 | Cc1ccc(C[N+](C)(C)C)o1 | inactive: -198% [at 56.9 µM] | –
38 | Cc1nccc2c1[nH]c1ccccc12 | – | inactive
39 | CN1CC[C@@]2(C)c3cc(O)ccc3N(C)C12 (some centres undefined) | – | active: 21.2 µM
40 | COc1ccc(OCC(=O)N2CCN(Cc3ccc(SC)cc3)CC2)cc1 | inactive: 14% | –
41 | CN(N=O)c1cc(O)ccc1O | – | active: 23.8 µM
42 | NC(Cc1cc(O)c(O)cc1O)C(=O)O (centres undefined) | – | active: 2.99 µM

Row | Structure (SMILES) | activity change, negative = inhibition | Potency
43 | CC(=O)OC1N=C(c2ccccc2)c2cc(Br)ccc2NC1=O (centres undefined) | inactive: 56.5% | –
44 | O=C(O)CC1OCC=C2CN3CCC45C6=CC(=O)C(=O)C([N+](=O)[O-])=C6NC4C1C2CC35 (centres undefined) | inactive: -23.1% [at 56.9 µM] | –
45 | O=c1oc(Cl)c(Cl)c2ccccc12 | inactive: -20.3% | –
46 | C[C@]12N[C@H](Cc3ccccc31)c1ccccc12 | – | inactive
47 | CN1CCCC1c1cccnc1 (centres undefined) | – | inactive
48 | CC(C)C[C@H]1C(=O)N2CCCC2[C@]2(O)O[C@](NC(=O)[C@@H]3C=C4c5cccc6[nH]c(Br)c(c56)C[C@H]4N(C)C3)(C(C)C)C(=O)N12 (some centres undefined) | inactive: 490% [at 56.9 µM] | –
49 | Oc1ccccc1O | inactive: 24.6% | –
50 | COc1ccc(Cc2nccc3cc(OC)c(OC)cc23)cc1OC | inactive: 10.6% [at 56.9 µM] | –
51 | CCN(CC)C(=O)c1ccc(NC(=O)c2ccc(-c3nn(C)c(=O)c4ccccc34)cc2)cc1 | inactive: 2.68% | –
52 | CNCCc1c[nH]c2ccc(O)cc12 | inactive: -13.3% | –
53 | CC[C@@H]1C(=O)OC[C@@H]1Cc1cncn1C | inactive: 7.74% | –
54 | Fc1ccc(C(OCCN2CCN(CCCc3ccccc3)CC2)c2ccc(F)cc2)cc1 | – | inactive
55 | CC(C)[C@@]1(NC(=O)[C@H]2CC3c4cccc5[nH]cc(c45)C[C@H]3N(C)C2)O[C@@]2(O)C3CCCN3C(=O)[C@@H](Cc3ccccc3)N2C1=O (some centres undefined) | inactive: 250% [at 56.9 µM] | –
56 | CC(C)(C)NCC(O)c1cc(Cl)c(N)c(Cl)c1 (centres undefined) | inactive: -0.783% | –
57 | COC(=O)C1=CCCN(C)C1 | – | inactive
58 | CCN1C[C@@]2(COC)C3[C@@H](OC)[C@H]4[C@@H]1[C@@]3(C1C[C@@]3(O)[C@H](OC(=O)c5ccccc5)C1[C@]4(OC(C)=O)[C@@H](O)[C@H]3OC)[C@@H](OC)C[C@H]2O (some centres undefined) | inactive: 1.74% | –
59 | CC(C)[C@]1(O)[C@@H](OC(=O)c2ccc[nH]2)[C@@]2(O)[C@@]3(C)C[C@]4(O)O[C@@]5([C@H](O)[C@@H](C)CC[C@]35O)[C@@]2(O)C41C | inactive: 10.3% | –
60 | CN(C)C1C(=O)C(C(N)=O)=C(O)C2(O)C(=O)C3=C(O)c4c(O)cccc4C(C)(O)C3C(O)C12 (centres undefined) | inactive: 22.4% | –
61 | COc1ccc2c(c1)/C(=C/c1cnc[nH]1)C(=O)N2 | inactive: -2.96% | –
62 | NCCc1c[nH]c2ccc(O)cc12 | inactive: -8.09% | –
63 | COc1ccc2c3c1OC1C(=O)CC[C@@]4(O)[C@@H](C2)N(CC2CC2)CC[C@]314 (some centres undefined) | inactive: 13.9% | –

Row | Structure (SMILES) | activity change, negative = inhibition | Potency
64 | C=C1N2CCC(CC2)C1(O)c1ccc(C)c(C)c1 (centres undefined) | inactive: 63.3% | –
65 | CNCC[C@H](Oc1ccc(C(F)(F)F)cc1)c1ccccc1 | inactive: -7.15% | –
66 | CCCN1CCc2cc(O)cc3c2[C@H]1Cc1ccc(O)c(O)c1-3 | inactive: -15.8% | –
67 | Oc1ccc2c3c1OC1c4[nH]c5ccccc5c4C[C@@]4(O)C(C2)N(CC2CC2)CC[C@]314 (some centres undefined) | inactive: -2.18% | –
68 | C[C@@]12N[C@@H](Cc3ccccc31)c1ccccc12 | – | inactive
69 | Cc1nnc2ccc(-c3cccc(C(F)(F)F)c3)nn12 | inactive: 9.65% | –
70 | CCC1C(=O)OCC1Cc1cncn1C (centres undefined) | – | inactive
71 | CCCN(CCC)[C@@H]1CCc2c(OC)cccc2[C@@H]1C | inactive: 250% [at 56.9 µM] | –
72 | C=CCN1C[C@@H](C)N(C(c2ccc(C(=O)N(CC)CC)cc2)c2cccc(OC)c2)C[C@@H]1C (some centres undefined) | inactive: -4.01% | –
73 | CN1CC[C@@]2(C)c3cc(O)ccc3N(C)[C@@H]12 | – | inactive
74 | CC(C)C[C@H](NP(=O)(O)O[C@@H]1O[C@@H](C)[C@H](O)[C@@H](O)[C@H]1O)C(=O)N[C@@H](Cc1c[nH]c2ccccc12)C(=O)O | inactive: -13.4% | –
75 | C[N+]1(C)CCC(OC(=O)C(c2ccccc2)c2ccccc2)CC1 | inactive: 0.174% | –
76 | Cc1c2ccncc2c(C)c2c1[nH]c1ccccc12 | – | inactive
77 | OCCN1CCN(CCCN2c3ccccc3Sc3ccc(C(F)(F)F)cc32)CC1 | – | inactive
78 | C[N+]1(C)[C@@H]2CC[C@H]1CC(OC(=O)C(CO)c1ccccc1)C2 (some centres undefined) | inactive: -0.783% | –
79 | CCCN1CCC[C@@H](c2cccc(O)c2)C1 | inactive: 13.6% | –
80 | Cc1ccc(S(=O)(=O)N[C@@H](CCCCN)C(=O)CCl)cc1 | inactive: -37.5% | –
81 | C=C(C)[C@@H]1CC[C@]2(C(=O)O)CC[C@]3(C)[C@H](CC[C@@H]4[C@@]5(C)CC[C@H](O)C(C)(C)[C@@H]5CC[C@]43C)[C@@H]12 | inactive: -16.1% | –
82 | CCNC(=O)[C@H]1O[C@@H](n2cnc3c(N)ncnc32)[C@H](O)[C@@H]1O | – | inactive
83 | O=C(/C=C\c1ccc(Cl)cc1)N[C@@]12CCC(=O)[C@@H]3Oc4c(O)ccc5c4[C@@]31CCN(CC1CC1)[C@@H]2C5 | inactive: 102% [at 56.9 µM] | –
84 | CC[C@H](Oc1ccc(Cl)cc1)C(=O)OC1C[C@H]2CC[C@@H](C1)N2C (some centres undefined) | inactive: 176% [at 56.9 µM] | –
